The shares of active, inactive and inconclusive entries below differ from those in the screen. A potency beside an inconclusive call is a rough fit, not a confirmed value. Activity calls are given as the source filed them. Calls come from the whole dose curve; as a rule, active = well fitted inhibition curve with a large enough effect; inconclusive = small, poorly fitted or top-dose-only effect; inactive = no such curve, though single readings can be large or run the other way.
These compounds were tested against Cytochrome P450 2C19 (Homo sapiens) (UniProt P33261) (assay: qHTS Assay for Inhibitors and Substrates of Cytochrome P450 2C19 (AID 899; note: nearly all actives have a fitted effect of over 60% in size)). Settings: recombinant CYP2C19, luciferin-H EGE luminescence; series mostly up to 11.4 µM.
UniProt P33261, sequence (P33261 whole entry, looked up): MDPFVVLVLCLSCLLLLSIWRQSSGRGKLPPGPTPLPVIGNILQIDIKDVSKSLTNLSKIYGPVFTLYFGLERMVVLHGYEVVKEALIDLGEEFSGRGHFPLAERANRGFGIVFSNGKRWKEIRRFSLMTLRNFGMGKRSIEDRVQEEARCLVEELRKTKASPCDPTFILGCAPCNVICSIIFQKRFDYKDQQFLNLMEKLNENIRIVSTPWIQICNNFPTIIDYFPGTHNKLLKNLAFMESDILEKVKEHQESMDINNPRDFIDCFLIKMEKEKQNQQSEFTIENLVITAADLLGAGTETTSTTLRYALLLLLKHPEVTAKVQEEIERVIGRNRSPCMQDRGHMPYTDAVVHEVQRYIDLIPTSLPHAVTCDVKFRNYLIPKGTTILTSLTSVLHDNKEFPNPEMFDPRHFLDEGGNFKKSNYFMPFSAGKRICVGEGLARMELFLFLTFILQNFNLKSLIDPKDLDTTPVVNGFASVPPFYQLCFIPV
Experimental: NIH Molecular Libraries Screening Centers Network [MLSCN]
NIH Chemical Genomics Center [NCGC]
The P450 gene superfamily is involved in the metabolism and clearance of xenobiotics. This assay used human CYP2C19 to measure the hydroxylation of ethylene glycol ester of 6' deoxyluciferin (Luciferin-H EGE; […]) to luciferin. The luciferin is then measured by luminescence after the addition of a luciferase detection reagent. Luciferin-H EGE concentration in the assay was equal to its KM for CYP2C19. Inhibitors and some substrates limit the production of luciferin, and decrease measured luminescence.
NCGC Assay Protocol Summary:
Two uL of enzyme and substrate mix (final concentrations: 5nM CYP2C19, 10uM Luciferin-H EGE, 50mM KPO4) were dispensed into a white, solid bottom 1536-well microtiter plate. 23nL of compound was transferred by a pin tool. The plate was incubated at 37C for 10 min. Two uL of an NADPH regeneration solution (Promega supplied reagent) was dispensed and the reaction was allowed to continue for 60 min at 37C. Then the reaction was stopped by reconstituted luciferin detection buffer. After another 20 min of incubation the plate was read on the ViewLux (Perkin Elmer) at 60 sec exposure and 2x2 binning. This protocol was carried out with Promega-Glo reagents and further information can be found at http://www.promega.com/tbs/tb325/tb325.pdf. Data were normalized to the to AC100 inhibition (57uM ketoconazole).
Keywords: P450, CYP2C19, Luciferase, MLSMR, MLSCN, NIH Roadmap, qHTS, NCGC
Potency is the fitted concentration of half-maximal effect; tags give direction and shape of the fitted curve.

SMILES	Potency
CCCC[C@@H]1C[C@H]1C(NC(=O)c1cccs1)c1ccc(-c2ccccc2)cc1 (stereo not given in full)	inconclusive: 3160 nM [inhibitor, full curve]
O=C(O)C1CC2(C1)CC(C(=O)O)C2 (stereo not given)	inactive
NCCNC(=S)S	inconclusive: 3980 nM [inhibitor, partial curve, poor fit]
COC(=O)[C@@]1(Cc2ccccc2)[C@H]2c3cc(C(=O)N4CCCC4)n(Cc4ccc(O)c(OC)c4)c3C[C@H]2CN1C(=O)c1ccccc1	active: 501 nM
Nc1[nH]c(=S)[nH]c(=O)c1N=Nc1c(Br)cc(S(N)(=O)=O)cc1Br	inactive
Cc1ccc2nc(CC(=O)c3ccc4ccccc4c3)c(=O)[nH]c2c1	inconclusive: 794 nM [inhibitor, full curve]
COC(=O)C/C=C\[C@@H](C)[C@@H](/C=N\OC[C@@H](C)[C@H](OCc1ccccc1)C(C)C)OC	inconclusive: 2000 nM [inhibitor, partial curve]
Nc1cccc2cc(S(=O)(=O)Nc3ccc(C(=O)O)cc3)ccc12	inconclusive: 3160 nM [inhibitor, partial curve]
NCCC[C@@H](CC(=O)N[C@@H]1CCNC[C@H]1C(=O)N[C@H](CC(=O)N[C@@H](CCC(=O)O)CC(=O)O)Cc1c[nH]c2ccccc12)NC(=O)C[C@H](CO)NC(=O)[C@@H]1CNCC[C@H]1N	inactive
C[C@]12CC[C@H]3c4ccc(OC[C@H]5CO5)cc4CC[C@H]3[C@H]1CC[C@@H]2O	inconclusive: 3160 nM [inhibitor, partial curve]
CC1(C)CC[C@]2(C(=O)O)CC[C@]3(C)C(=CC[C@@H]4[C@@]5(C)CC[C@H](O)C(C)(C)[C@@H]5CC[C@@]43C)[C@@H]2C1	inactive
CCc1cc2c(nc1CC)CCN(CC/C(C)=N/OC[C@@H](O)[C@@H]1O[C@@H]3OC(C)(C)O[C@@H]3[C@H]1O)C2	inconclusive: 31.6 nM [inhibitor, partial curve]
Cc1ccccc1OC1C=CC(C#Cc2ccc(Br)cc2)OC1CO (stereo not given)	inactive
CO[C@H]1COC(=O)[C@H](Cc2ccccc2)NC(=O)C/C=C\[C@@H](C)[C@H](OC)COC(=O)C/C=C\[C@@H]1C	inconclusive: 2510 nM [inhibitor, partial curve, poor fit]
N=C(N)S[C@H]1c2ccccc2-c2cc([N+](=O)[O-])ccc21	inconclusive: 631 nM [inhibitor, full curve, poor fit]
FC(F)(F)c1nc(SCc2ccc(Cl)cc2)n[nH]1	inconclusive: 2510 nM [inhibitor, partial curve, poor fit]
CC(C)C[C@@H](CC(=O)N[C@@H](CCC(=O)O)CC(=O)O)NC(=O)[C@@H]1CCCC[C@H]1NC(=O)C[C@H](CCCN)NC(=O)C[C@H](Cc1c[nH]c2ccccc12)NC(=O)[C@@H]1CNCC[C@H]1N	inactive
O=C1C=C(Nc2nc(C(=O)O)cc(=O)[nH]2)c2ccccc2C1=O	inconclusive: 3160 nM [inhibitor, partial curve]
COC(=O)[C@@]1(Cc2ccccc2)[C@H]2c3cc(C(=O)N4CCCC4)n(Cc4ccsc4Br)c3C[C@H]2CN1C(=O)c1ccccc1	active: 2510 nM
COc1ccc(-c2ccc3c(n2)CCCN3C[C@H](O)CN2CCCc3nc(C)c(C)cc32)cc1	inconclusive: 3980 nM [inhibitor, single point]

SMILES	Potency
CC1CCC(C(=O)O)NC1c1ccc(C#CCN(C)C)cc1 (stereo not given)	inactive
NCCC[C@@H](CC(=O)N[C@@H]1CCCC[C@H]1C(=O)N[C@H](CC(=O)N[C@@H](CCC(=O)O)CC(=O)O)Cc1c[nH]c2ccccc12)NC(=O)C[C@H](CO)NC(=O)[C@@H]1CNCC[C@H]1N	inactive
C#C[C@]1(O)CC[C@@H]2[C@H]3CCc4cc(OC)ccc4[C@@H]3CC[C@@]21C	inconclusive: 1260 nM [inhibitor, full curve]
CCC/C=C(\CCC)C(NS(=O)(=O)c1ccc(C(F)(F)F)cc1)c1ccc(-c2ccccc2)cc1 (stereo not given)	active: 7940 nM
Clc1ccc(-c2nnc(-c3cccc4ccccc34)o2)cc1Cl	inactive
COC(=O)NC(c1cccc(F)c1)[C@@]1(C(=O)OC)CCCC1=O (stereo not given in full)	inactive
CC(C)[C@@H](CC(=O)N[C@@H]1CCNC[C@H]1C(=O)N[C@H](CC(=O)N[C@@H](CCC(=O)O)CC(=O)O)Cc1c[nH]c2ccccc12)NC(=O)C[C@H](Cc1c[nH]c2ccccc12)NC(=O)[C@@H]1CNCC[C@H]1N	inactive
CN=C(N)/N=C(\N)Nc1cc2ccccc2c2ccccc12	inconclusive: 3980 nM [inhibitor, single point]
COc1c(O)ccc2c1CN1CCc3cc4c(cc3[C@@H]1C2)OCO4	inconclusive: 3980 nM [inhibitor, partial curve, poor fit]
CCOC(=O)CCN1C(=O)[C@H]2[C@@H]3[C@H](O)[C@H](O)CC(=O)[C@H]3CC[C@H]2C1=O	inactive
C[C@H]1CC[C@H]2C(=O)N[C@H](Cc3ccccc3)C(=O)N2[C@@H]1c1ccccc1	inconclusive: 3980 nM [inhibitor, single point]
C=CC[C@@H]1C=C[C@@H](O/N=C\c2ccc(C(=O)N3[C@H](c4ccc(C)cc4)[C@@H](C)CC[C@H]3C(=O)OC)cc2)[C@@H](CO)O1	inconclusive: 3160 nM [inhibitor, partial curve]
CO[C@@H]1COC(=O)CCC[C@@H](C)[C@H](OC)COC(=O)[C@H](Cc2ccccc2)NC(=O)C/C=C\[C@H]1C	inconclusive: 2.5 nM [inhibitor, full curve, poor fit]
Cc1ccc(CNC(=O)[C@H]2C[C@@H]2[C@H](NP(=O)(c2ccccc2)c2ccccc2)c2ccccc2)c(F)c1F	inconclusive: 39.8 nM [inhibitor, partial curve, poor fit]
COC(=O)[C@@]1(Cc2ccccc2)[C@H]2c3cc(C(=O)N(C)C)n(Cc4ccsc4Br)c3C[C@H]2CN1C(=O)c1ccccc1	active: 2000 nM
NC1=C(O)C(=O)[C@H](c2c[nH]c3ccc(OCc4ccccc4)cc23)O1	inconclusive: 6310 nM [inhibitor, single point]
CC1(C)OC(C(O)(c2cccc3c2oc2ccccc23)c2cccc3c2oc2ccccc23)C(C(O)(c2cccc3c2oc2ccccc23)c2cccc3c2oc2ccccc23)O1 (stereo not given)	inactive
COc1cccc([C@@H]2Oc3ccc(OC)cc3/C(=N/O[C@@H](C)CN3CCCc4nc(C)c(C)cc43)[C@@H]2O)c1	inconclusive: 251 nM [inhibitor, partial curve, poor fit]
O=C(NCCO)c1ccc(Cl)cc1	inconclusive: 2000 nM [inhibitor, partial curve]
C/C(CCN1CCc2nc(-c3ccccc3)c(-c3ccccc3)cc2C1)=N\O[C@@H](C)c1cc(-c2c(C)cc(C)cc2C)no1	inconclusive: 6.3 nM [inhibitor, full curve]

Source: PubChem BioAssay (NCATS)
